B1: CD80_207 variant CD80 IgV-Fc (E35D, V68T, T101K) (Fc fusion)
chain: VIHVTKEVKEVATLSCGHNVSVEELAQTRIYWQKDKKMVLTMMSGDMNIWPEYKNRTIFDITNNLSITILALRPSDEGTYECVVLKYEKDAFKREHLAEVKLSVKADGSGGGGS[omitted - human IgG4 Fc with S228P (EU numbers)]
B2: CD80_216 variant CD80 IgV-Fc (V11W, T28Y, D46V, R73E, F92L) (Fc fusion)
chain: B1 chain with V11W, T28Y, D35E, D46V, T68V, R73E, F92L, K101T
B3: CD80_215 variant CD80 IgV-Fc (K9R, E10A, E35G, V68L, L85E) (Fc fusion)
chain: B1 chain with K9R, E10A, D35G, T68L, L85E, K101T
B4: CD80_209 variant CD80 IgV-Fc (V11Y, T28R, E35G, M47L, F59S) (Fc fusion)
chain: B1 chain with V11Y, T28R, D35G, M47L, F59S, T68V, K101T
B5: CD80-220 variant CD80 IgV-Fc (H18F, T28V, M47L, V68S) (Fc fusion)
chain: B1 chain with H18F, T28V, D35E, M47L, T68S, K101T
B6: CD80_217 variant CD80 IgV-Fc (K9N, E10G, Y87K, T101Q) (Fc fusion)
chain: B1 chain with K9N, E10G, D35E, T68V, Y87K, K101Q
B7: CD80_222 variant CD80 IgV-Fc (E35D, D46Q, L85E) (Fc fusion)
chain: B1 chain with D46Q, T68V, L85E, K101T
B8: CD80_210 variant CD80 IgV-Fc (E7N, E35D, F59S) (Fc fusion)
chain: B1 chain with E7N, F59S, T68V, K101T
B9: CD80_166 variant CD80 IgV-Fc (V11Y, M47V, L85E) (Fc fusion)
chain: B1 chain with V11Y, D35E, M47V, T68V, L85E, K101T
B10: CD80_208 variant CD80 IgV-Fc (V11Y, E35G, M42G, F59S) (Fc fusion)
chain: B1 chain with V11Y, D35G, M42G, F59S, T68V, K101T
B11: CD80-218 variant CD80 IgV-Fc (V11W, T28Y, D46V, V68T, R73T, Y87N) (Fc fusion)
chain: B1 chain with V11W, T28Y, D35E, D46V, R73T, Y87N, K101T
B12: CD80_214 variant CD80 IgV-Fc (E10G, E35G, D46E, M47V, V68M, T101K) (Fc fusion)
chain: B1 chain with E10G, D35G, D46E, M47V, T68M
B13: CD80_211 variant CD80 IgV-Fc (V11Y, T28R, E35G, M47L, A71G) (Fc fusion)
chain: B1 chain with V11Y, T28R, D35G, M47L, T68V, A71G, K101T
B14: CD80_212 variant CD80 IgV-Fc (K9R, E10A, E35G, V68T, T101K) (Fc fusion)
chain: B1 chain with K9R, E10A, D35G
B15: CD80-219 variant CD80 IgV-Fc (E10S, V11Y, M42R, A71V) (Fc fusion)
chain: B1 chain with E10S, V11Y, D35E, M42R, T68V, A71V, K101T
B16: CD80_221 variant CD80 IgV-Fc (E10G, A26S, T28Y) (Fc fusion)
chain: B1 chain with E10G, A26S, T28Y, D35E, T68V, K101T
B17: CD80_167 variant CD80 IgV-Fc (V11Y, M42I, M47V, A71G) (Fc fusion)
chain: B1 chain with V11Y, D35E, M42I, M47V, T68V, A71G, K101T
B18: CD80_213 variant CD80 IgV-Fc (V11Y, V68T) (Fc fusion)
chain: B1 chain with V11Y, D35E, K101T

Positions count from the first letter of the chain named. Names and notes keep the numbering of the source.

The experiment deals with CD28 on Jurkat/IL2-reporter cells (UniProt P10747 19-220, limits assumed). Briefly: cell-based or functional assay.
As to B1, the “Fold Increase over WT at 50 nM” value was found to be 0.89 fold, the “Rel. Luminescence Units (RLU) 2 nM” value stood at 2330 RLU, the “Rel. Luminescence Units (RLU) 10 nM” value came to 2270 RLU and the “Rel. Luminescence Units (RLU) 50 nM” value was determined as 2170 RLU. For the same molecule, the “Rel. Luminescence Units (RLU) 250 nM” value was 2550 RLU.

For the molecule B2, the “Fold Increase over WT at 50 nM” value is 1.04 fold, the “Rel. Luminescence Units (RLU) 2 nM” value came to 2420 RLU, the “Rel. Luminescence Units (RLU) 10 nM” value is 2350 RLU and the “Rel. Luminescence Units (RLU) 50 nM” value turned out to be 2540 RLU. The “Rel. Luminescence Units (RLU) 250 nM” value was 3780 RLU.

With B3, the “Fold Increase over WT at 50 nM” value came out at 2.2 fold, the “Rel. Luminescence Units (RLU) 2 nM” value amounted to 2690 RLU, the “Rel. Luminescence Units (RLU) 10 nM” value was determined as 3640 RLU and the “Rel. Luminescence Units (RLU) 50 nM” value was found to be 5370 RLU. The “Rel. Luminescence Units (RLU) 250 nM” value turned out to be 6560 RLU.

In the case of B4, the “Fold Increase over WT at 50 nM” value is 0.89 fold, the “Rel. Luminescence Units (RLU) 2 nM” value was 2510 RLU, the “Rel. Luminescence Units (RLU) 10 nM” value was 2200 RLU and the “Rel. Luminescence Units (RLU) 50 nM” value is 2180 RLU. Moreover, the “Rel. Luminescence Units (RLU) 250 nM” value came out at 2300 RLU.

Regarding B5, the “Fold Increase over WT at 50 nM” value turned out to be 1.01 fold, the “Rel. Luminescence Units (RLU) 2 nM” value amounted to 2360 RLU, the “Rel. Luminescence Units (RLU) 10 nM” value worked out at 2320 RLU and the “Rel. Luminescence Units (RLU) 50 nM” value was found to be 2470 RLU. Besides, the “Rel. Luminescence Units (RLU) 250 nM” value is 3290 RLU.

With B6, the “Fold Increase over WT at 50 nM” value came to 1.75 fold, the “Rel. Luminescence Units (RLU) 2 nM” value is 2360 RLU, the “Rel. Luminescence Units (RLU) 10 nM” value is 2660 RLU and the “Rel. Luminescence Units (RLU) 50 nM” value stood at 4260 RLU. Besides, the “Rel. Luminescence Units (RLU) 250 nM” value was 8330 RLU.

As for B7, the “Fold Increase over WT at 50 nM” value was 1.05 fold, the “Rel. Luminescence Units (RLU) 2 nM” value is 2650 RLU, the “Rel. Luminescence Units (RLU) 10 nM” value came to 2590 RLU and the “Rel. Luminescence Units (RLU) 50 nM” value stood at 2560 RLU. Besides, the “Rel. Luminescence Units (RLU) 250 nM” value is 3730 RLU.

In the case of B8, the “Fold Increase over WT at 50 nM” value was determined as 0.96 fold, the “Rel. Luminescence Units (RLU) 2 nM” value came to 2580 RLU, the “Rel. Luminescence Units (RLU) 10 nM” value turned out to be 2330 RLU and the “Rel. Luminescence Units (RLU) 50 nM” value amounted to 2340 RLU. Further, the “Rel. Luminescence Units (RLU) 250 nM” value was determined as 2300 RLU.

Take B9: the “Fold Increase over WT at 50 nM” value was 1.03 fold, the “Rel. Luminescence Units (RLU) 2 nM” value amounted to 2620 RLU, the “Rel. Luminescence Units (RLU) 10 nM” value was 2460 RLU and the “Rel. Luminescence Units (RLU) 50 nM” value is 2510 RLU. Moreover, the “Rel. Luminescence Units (RLU) 250 nM” value was determined as 2670 RLU.

Turning to B10, the “Fold Increase over WT at 50 nM” value was found to be 0.88 fold, the “Rel. Luminescence Units (RLU) 2 nM” value was 2450 RLU, the “Rel. Luminescence Units (RLU) 10 nM” value worked out at 2210 RLU and the “Rel. Luminescence Units (RLU) 50 nM” value amounted to 2160 RLU. In addition, the “Rel. Luminescence Units (RLU) 250 nM” value came out at 2230 RLU.

As for B11, the “Fold Increase over WT at 50 nM” value is 1.09 fold, the “Rel. Luminescence Units (RLU) 2 nM” value is 2240 RLU, the “Rel. Luminescence Units (RLU) 10 nM” value is 2220 RLU and the “Rel. Luminescence Units (RLU) 50 nM” value came to 2650 RLU. The “Rel. Luminescence Units (RLU) 250 nM” value was 3780 RLU.

On to B12, for which the “Fold Increase over WT at 50 nM” value worked out at 3.78 fold, the “Rel. Luminescence Units (RLU) 2 nM” value came out at 5090 RLU, the “Rel. Luminescence Units (RLU) 10 nM” value was found to be 6700 RLU and the “Rel. Luminescence Units (RLU) 50 nM” value was 9220 RLU. Further, the “Rel. Luminescence Units (RLU) 250 nM” value amounted to 13900 RLU.

For B13, the “Fold Increase over WT at 50 nM” value came out at 2.73 fold, the “Rel. Luminescence Units (RLU) 2 nM” value was 2740 RLU, the “Rel. Luminescence Units (RLU) 10 nM” value amounted to 3250 RLU and the “Rel. Luminescence Units (RLU) 50 nM” value is 6660 RLU. The “Rel. Luminescence Units (RLU) 250 nM” value turned out to be 11200 RLU.

For B14, the “Fold Increase over WT at 50 nM” value turned out to be 1.28 fold, the “Rel. Luminescence Units (RLU) 2 nM” value worked out at 2700 RLU, the “Rel. Luminescence Units (RLU) 10 nM” value came out at 2630 RLU and the “Rel. Luminescence Units (RLU) 50 nM” value was 3130 RLU. Moreover, the “Rel. Luminescence Units (RLU) 250 nM” value amounted to 6530 RLU.

Take B15: the “Fold Increase over WT at 50 nM” value was determined as 1.06 fold, the “Rel. Luminescence Units (RLU) 2 nM” value came to 2190 RLU, the “Rel. Luminescence Units (RLU) 10 nM” value came out at 2440 RLU and the “Rel. Luminescence Units (RLU) 50 nM” value was determined as 2580 RLU. The “Rel. Luminescence Units (RLU) 250 nM” value came to 3880 RLU.

On to B16, for which the “Fold Increase over WT at 50 nM” value was found to be 1.61 fold, the “Rel. Luminescence Units (RLU) 2 nM” value was 2540 RLU, the “Rel. Luminescence Units (RLU) 10 nM” value came out at 2950 RLU and the “Rel. Luminescence Units (RLU) 50 nM” value stood at 3930 RLU. The “Rel. Luminescence Units (RLU) 250 nM” value worked out at 8710 RLU.

For B17, the “Fold Increase over WT at 50 nM” value came out at 1.07 fold, the “Rel. Luminescence Units (RLU) 2 nM” value worked out at 2330 RLU, the “Rel. Luminescence Units (RLU) 10 nM” value turned out to be 2670 RLU and the “Rel. Luminescence Units (RLU) 50 nM” value worked out at 2620 RLU. The “Rel. Luminescence Units (RLU) 250 nM” value came to 2870 RLU.

Turning to B18, the “Fold Increase over WT at 50 nM” value is 2.44 fold, the “Rel. Luminescence Units (RLU) 2 nM” value was found to be 3120 RLU, the “Rel. Luminescence Units (RLU) 10 nM” value came out at 4110 RLU and the “Rel. Luminescence Units (RLU) 50 nM” value was 5960 RLU. In addition, the “Rel. Luminescence Units (RLU) 250 nM” value amounted to 9250 RLU.
